Experimental data taken from publication PMC6919601, “Identification of Plasmodium dipeptidyl aminopeptidase allosteric inhibitors by high throughput screening” (PLoS ONE, 2019).
“And” between values parts separate entries of the source, which are not always exact repeats. Equal entries are not always repeated. Among all 110,000 compounds or so, about 230 (0.21%) showed an effect of 50% or more. This is one part of the list.

Molecular target: DPAP1 (Plasmodium falciparum, UniProt Q8IIJ9)
Assay: primary screen, percent inhibition; read by cleavage of a fluorogenic dipeptide substrate; higher = more effect of the substance
Parameters: species or system P. falciparum D10 trophozoite lysates; single well
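Also: 30 min substrate incubation versus DMSO and 10 µM JCP410 controls.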

DPAP1, sequence (Q8IIJ9 whole entry, looked up): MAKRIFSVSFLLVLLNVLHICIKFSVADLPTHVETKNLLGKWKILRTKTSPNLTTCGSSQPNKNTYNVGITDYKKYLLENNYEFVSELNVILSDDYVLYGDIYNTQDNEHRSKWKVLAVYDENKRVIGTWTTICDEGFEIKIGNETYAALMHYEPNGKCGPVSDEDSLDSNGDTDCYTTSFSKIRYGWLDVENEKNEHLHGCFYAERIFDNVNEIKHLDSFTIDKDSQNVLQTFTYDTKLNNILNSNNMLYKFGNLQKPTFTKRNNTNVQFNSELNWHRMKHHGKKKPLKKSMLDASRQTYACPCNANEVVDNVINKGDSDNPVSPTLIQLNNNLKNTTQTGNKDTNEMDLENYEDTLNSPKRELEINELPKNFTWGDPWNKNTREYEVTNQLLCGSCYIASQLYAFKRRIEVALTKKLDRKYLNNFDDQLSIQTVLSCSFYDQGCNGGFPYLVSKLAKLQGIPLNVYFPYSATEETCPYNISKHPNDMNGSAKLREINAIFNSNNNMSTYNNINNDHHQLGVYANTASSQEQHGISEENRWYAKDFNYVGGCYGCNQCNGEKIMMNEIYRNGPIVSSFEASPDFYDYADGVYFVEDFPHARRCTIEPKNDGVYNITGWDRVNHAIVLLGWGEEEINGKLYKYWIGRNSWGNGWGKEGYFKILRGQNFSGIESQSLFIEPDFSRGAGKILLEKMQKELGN

| Compound | % Inhibition @ 10 uM |
| --- | --- |
| O=C(CSCc1c(Cl)cccc1Cl)NCc1cccnc1 | 3.05% |
| CN(C)/C=N/C(=O)CN1CCCC1=O | -1.69% |
| O=C(CCNC(=O)Cn1cnc2sc3c(c2c1=O)CCCC3)NCC1CCCO1 (stereo not shown) | -2.4% |
| COc1ccccc1OCc1ccc(C(=O)NCc2ccccc2F)cc1 | 2.09% |
| OCC1c2ccccc2-c2ccccc21 | 0.673% |
| Cc1cccc(N2C(=O)CC(n3c(C)nc4ccccc43)C2=O)c1 (stereo not shown) | -1.36% |
| O=S(=O)(c1cccc2nsnc12)N1CCC(O)(c2cccc(C(F)(F)F)c2)CC1 | 16.4% |
| O=C(CCCC(=O)c1ccccc1)NCCSCc1ccccc1 | -5.03% |
| COc1ccccc1C(=O)N/C(=C/c1ccc(Br)cc1)C(=O)N1CCCCC1 | -8.88% |
| C=CCOCC(O)CSCc1ccccc1 (stereo not shown) | -6.86% |
| O=C(NCC1COc2ccccc2O1)C1CCN(S(=O)(=O)c2c[nH]cn2)CC1 (stereo not shown) | 4.51% |
| COC(=O)c1ccc2nc(Nc3nc4cc5c(cc4s3)OCO5)sc2c1 | 0.458% |
| C=CCN1CC(=O)C(c2nc3cc(C)ccc3[nH]2)=C1N | -3.22% |
| C=Cc1ccc(Cn2c(C(=O)O)c(CNCCc3cccs3)c3ccccc32)cc1 | -3.21% |
| Cc1ccc(Cc2nnc(C(=O)NC3CCCCCC3)o2)cc1 | 0.974% |
| COc1ccccc1C(c1ccc(C)o1)c1ccc(C)o1 | 16.1% |
| COC(=O)c1nnn(-c2ccc(C)c(Cl)c2)c1C(=O)OC | -3.39% |
| CC(=O)Nc1ccc(S(=O)(=O)Nc2ccn(Cc3ccccc3Cl)n2)cc1 | -3.77% |
| OC(COCc1ccccc1F)CN1CCCCC1 (stereo not shown) | 1.49% |
| COc1ccc(CC(=O)NC(C)C(c2cccs2)N2CCN(C)CC2)cc1OC (stereo not shown) | 5.53% |
| CNC(=O)Cc1coc2ccc3ccccc3c12 | -1.11% |
| Cn1c2ccccc2c2nnc(NCc3ccccc3)nc21 | -0.0652% |
| Cc1ccc(C(C)C)c(OCC(=O)Nc2ccc(S(=O)(=O)Nc3nccs3)cc2)c1 | -3.13% |
| Cc1ccc(Cn2c(C)c3cnn(CC(=O)NC(C)c4ccccc4)c(=O)c3c2C)cc1 (stereo not shown) | 1.22% |
| NC(=O)c1cc(S(=O)(=O)NCCCc2ccco2)cs1 | -2.31% |
| Cc1ccc(C(=O)Nc2sc3c(c2C(N)=O)CCCCCC3)o1 | 1.57% |

| Compound | % Inhibition @ 10 uM |
| --- | --- |
| C=CCSC[C@H](NC(=O)OCc1ccccc1)C(=O)NCC#N | 15.6% |
| CCC(C)NC(=O)CN1C(=O)NC2NC(=O)NC21 (stereo not shown) | 6.37% |
| Cc1cc(NC(=O)c2cc(-c3ccccc3Cl)nc3ccccc23)no1 | 0.64% |
| O=C(Cn1nc(Cc2ccncc2)c2ccccc2c1=O)N1CC=C(c2ccccc2)CC1 | 9.33% |
| CC1(C)CC(C)(c2ccccc2O)Oc2ccccc21 (stereo not shown) | -3.49% |
| COc1cc(NC(=O)c2sc3nc(-c4ccc(F)cc4)ccc3c2N)cc(OC)c1OC | -1.6% |
| COc1cc(SC)ccc1C(=O)N1CCCC1 | -0.759% |
| FC(F)(F)c1nnc(N2CCNCC2)s1 | 0.627% |
| CC(C)Oc1ccc(CNCc2ccc(C(=O)O)s2)cc1 | -5.43% |
| O=C(CCc1ccccc1)Nc1ccccc1C(=O)Nc1ccccc1 | -1.38% |
| Cc1ccc(C(=O)N2CCN(c3ccccc3)CC2)cc1 | -0.856% |
| Cn1c(=O)c2c(nc(NCCOc3ccc(Cl)cc3)n2C)n(C)c1=O | 3.34% |
| O=S(=O)(c1ccccc1)c1nnn2c1nc(NCC1CCCO1)c1sccc12 (stereo not shown) | -3.15% |
| CCOC(C#CCN(CC)CC)(c1ccccc1)c1ccccc1 | -2.15% |
| Cc1ccc(C(=O)N2CCc3ccccc3C2)cc1 | -3.04% |
| CC(C)C[C@H](Nc1nc(-c2cccc(NC(=O)Oc3ccccc3)c2)cs1)C(=O)NCC#N | 0.079% |
| CCOC(=O)Nc1ccc2c(c1)N(C(C)=O)c1ccccc1CC2 | 0.912% |
| Cc1ccnc(NC(=O)Cn2ncc3c4ccccc4nc-3c2O)c1 | 1.9% |
| Cn1nc(C(=O)NCCc2ccc(S(N)(=O)=O)cc2)c2c1-c1ccccc1S(=O)(=O)C2 | 3.71% |
| O=C(O)c1cnccc1C(=O)Nc1cccc(F)c1 | 1.89% |
| CC1CCC(N2CCN(c3ccc(Cl)cc3)CC2)CC1 (stereo not shown) | 4.75% |
| O=c1c(-c2ccccc2)coc2cc(OCc3ccccc3F)ccc12 | -1.17% |
| COc1cccc(C(=O)C2=C(O)C(=O)N(CCCn3ccnc3)C2c2ccccn2)c1 (stereo not shown) | -15.1% |
| CS(=O)(=O)N(CC(=O)N1CCOCC1)c1ccc(Cl)c(Cl)c1 | -3.65% |
| CC(=O)N1c2ccccc2N=C2CC(c3cccs3)CC(O)=C2C1c1ccc(F)cc1 (stereo not shown) | -0.864% |
| O=C1CC(c2ccccc2)n2ncnc2N1 (stereo not shown) | 2.17% |

| Compound | % Inhibition @ 10 uM |
| --- | --- |
| COc1ccc2[nH]c(C)c(CCNC(=S)NC3CCCCC3)c2c1 | 2.85% |
| CC1(C)CC(O)=C(C(=O)c2ccccc2)/C(=N/CCO)C1 | -2.77% and 3.59% |
| CC1CCCN(CCCNC(=O)c2ccc(CS(=O)c3ccccc3)o2)C1 (stereo not shown) | -4.96% |
| O=C1CC(c2ccc(Cl)c(Cl)c2)C2=C(CC(c3cccs3)CC2=O)N1 (stereo not shown) | -2.87% |
| C1Cc2c(c(CN3CCOCC3)c3c(c2CN2CCOCC2)CCC3)C1 | -9.77% |
| O=C(c1cccs1)c1cn(CC(=O)N2CCc3ccccc3C2)c2ccccc12 | -5.51% |
| CCC(=O)Nc1nonc1-c1nc2ccccc2n1C(C)C | 5.39% |
| Cc1ccccc1OCC(=O)Nc1ccc(Cl)c(C(F)(F)F)c1 | -6.01% |
| Cn1c(=O)[nH]c(=O)c2c1nc(N1CCCCCC1)n2CCN1CCCCCC1 | 0.758% |
| N#CCCn1cc(C2CC(c3ccccc3)=NNC2=O)c2ccccc21 (stereo not shown) | 3.38% |
| O=C(O)C1C(C(=O)Nc2cccc([N+](=O)[O-])c2)C2C=CC1C21CC1 (stereo not shown) | 3.01% |
| Cc1ccc(OCC(=O)Nc2ccc(NC(=O)c3ccccc3)c(C)c2)cc1 | 1.08% |
| O=C(CSc1ccc(-c2cccs2)nn1)c1ccc(F)cc1 | -3.44% |
| CCCC[C@H](NC(=O)[C@H](CS(=O)(=O)Cc1ccccc1)NC(=O)N1CCOCC1)C(=O)C1Cc2ccccc2C1=O (stereo partly shown) | 19.1% |
| COc1ccc2ccccc2c1C1CC(=O)N2CN(C)CSC2=C1C#N (stereo not shown) | 36.5% |
| CC(C)(C)C(=O)N1CCCC1C(=O)O (stereo not shown) | -1.36% |
| CC(NC(=O)CCc1nnc2n(Cc3ccccc3)c(=O)c3ccccc3n12)c1ccccc1 (stereo not shown) | 2.6% |
| CN(C)CCCN1C(=O)CSC1c1cccc(Cl)c1 (stereo not shown) | -3.44% |
| CN(C)C(=O)C1c2ccccc2C(=O)N(C2CCCC2)C1c1cccs1 (stereo not shown) | 4.41% |
| O=C1OC(c2cccc3ccccc23)=N/C1=C\c1coc2ccc(Cl)cc2c1=O | 11.4% |
| CC1=C([N+](=O)[O-])CS(=O)(=O)/C1=C/C=C/c1ccccc1 | 6.83% |
| O=C(COc1ccc2ccc(=O)oc2c1)Nc1ccccn1 | 0.0719% |
| COc1cc(C(=O)Nc2ccccc2)cc(OC)c1OC | 3.57% |
| COC(=O)Nc1c(-c2ccccc2)nc2ccccn12 | 1.54% |
| C=CCn1cc(/C=C2/NC(=O)N(CC)C2=O)c2ccccc21 | -1.43% |
| Nc1ccc2oc(=O)c(-c3ccccc3)cc2c1 | 4.12% |

| Compound | % Inhibition @ 10 uM |
| --- | --- |
| Cc1nc2c(c(C)nn2-c2ccccc2)c(C)c1CCC(=O)N1CCCC1 | 5.65% |
| Fc1ccc(CN2CCN(Cc3ccc4c(c3)OCO4)CC2)c(F)c1 | -5.61% |
| CCOC(=O)c1sc2nc(-c3ccccc3)cc(-c3ccccc3)c2c1N | -1.68% |
| COCCN1C(=O)c2ccccc2C(C(=O)Nc2cccnc2Cl)C1c1cccs1 (stereo not shown) | 5.37% |
| O=C(c1cc2c(s1)-c1ccccc1OC2)N1CC=C(c2ccccc2)CC1 | 0.291% |
| COC(=O)c1ccc(CSc2nnc(C)n2N)o1 | 2.17% |
| Cc1ccc2nc(NC(C)c3ccccc3)c3nnnn3c2c1 (stereo not shown) | -0.999% |
| O=C1c2ccccc2C(=O)c2c1n[n+]([O-])n2CCCN1CCN(c2ccccn2)CC1 | -0.92% |
| COc1ccc(C)cc1NC(=O)c1cccnc1Cl | 1.64% |
| CCOC(=O)c1cc2c(nc1N)COC(C)(C)C2 | -6.83% |
| Oc1nc(-c2ccccc2)ncc1Oc1ccccc1 | -1.61% |
| COCC(C)NCc1ccccc1C(F)(F)F (stereo not shown) | -1.85% |
| Nc1ccc(Sc2ccc(Cc3ccc(Sc4ccc(N)cc4)cc3)cc2)cc1 | -0.415% |
| Cc1ccc(S(=O)(=O)N2CCC(C(=O)Nc3c(F)cccc3F)CC2)cc1 | 1.93% |
| CCc1c(C)n[n+]2cnn(Cc3ccc(Cl)cc3)c2c1O | 1.13% |
| CCOc1ccc(C(C)(C)C)cc1S(=O)(=O)Nc1ccc(Cl)cn1 | -3.53% |
| COc1cc(/C=C\C(=O)Nc2c3c(nn2-c2cccc(C)c2C)CS(=O)(=O)C3)cc(OC)c1OC | 8.58% |
| CC1CCc2c(sc(NC(=O)c3cccs3)c2C#N)C1 (stereo not shown) | 1.37% |
| N#CC1=C(N)Oc2ncnc(O)c2C1c1ccc(-c2ccccc2)cc1 (stereo not shown) | 2.01% |
| Cc1ccc(C)n1-c1cc(C(=O)O)ccc1O | 1.26% |
| COc1cccc(CN2CCN(Cc3ccc(F)cc3)CC2)c1OC | -7.46% |
| CCC(=O)Nc1ccc(C(=O)Nc2cc(OC)c(OC)cc2C(=O)O)cc1 | 2.29% |
| N#CC1=C(N)Oc2[nH]nc(-c3cccs3)c2C1c1ccccc1Cl (stereo not shown) | -6.37% |
| COCCN1C(=O)c2ccccc2C(C(=O)N2CCCC2)C1c1cccs1 (stereo not shown) | 0.526% |
| CC1=C(C(=O)Nc2ccccc2C)C(c2cccs2)C(C#N)=C(SCC(N)=O)N1 (stereo not shown) | 3.46% |
